Test results reported in patent US20260092110A1.

B1: MOG303 scFv-hG4PE(R409K) antibody (Fc fusion)
scFv-Fc: [about 100 residues omitted]GGYDILTGYFFDYWGQGTTVTVSSGGGGSGGRASGGGGSAIQMTQSPSSLSASVGDRVTITCRASQGISSALAWYQQKPGKAPKLLIYDASSLESGVPSRFSGSGSGTDFTLTISSLQPEDFATYYCQQFNSYPFTFGPGTRLEIK[human IgG4 Fc with S228P L235E R409K (EU numbers) omitted]
B2: MOG329 scFv-hG4PE(R409K) antibody (Fc fusion)
chain: QVQLVESGGGLVQPGGSLRLSCAASGFAFRNYAMNWVRQAPGKGLEWVSAISGSGGSTYYADSVKGRFTISRDNSKNTLYLQMNSLRAEDTAVYYCARDYGGISPFDYWGQGTLVTVSSGGGGSGGRASGGGGSDIQLTQSPSSLSASVGDRVTITCRASQGISSALAWYQQKPGKAPKLLIYDASSLESGVPSRFSGSGSGTDFTLTISSLQPEDFATYYCQQFNSYPHTFGQGTKVDIK[human IgG4 Fc with S228P L235E R409K (EU numbers) omitted]
B3: MOG446 scFv-hG4PE(R409K) antibody (Fc fusion)
chain: QVQLVESGGGVVRPGGSLRLSCAASGFTFDDYGMSWVRQAPGKGLEWVSNINWNGDSTGYVDSVKGRFTISRDNAKNSLYLQMNSLRAEDTALYYCARARTYYYVSGRYYFDYWGQGTLVTVSSGGGGSGGRASGGGGSDIQMTQSPSSLSASVGDRVTITCRASQGISSALAWYQQKPGKAPKLLIYDASSLESGVPSRFSGSGSGTDFTLTISSLQPEDFATYYCQQFNSYPLTFGGGTKVEIK[human IgG4 Fc with S228P L235E R409K (EU numbers) omitted]
B4: MOG456 scFv-hG4PE(R409K) antibody (Fc fusion)
chain: EVQLVESGGGLVKPGGSLRLSCAASGFTFSSYSMHWVRQAPGKGLEWVSSIGSRSRYIYYADSVKGRFTISRDNAKNSLYLQMNSLRAEDTAVYYCAKGYYDILTGSLFDYWGQGTLVTVSSGGGGSGGRASGGGGSDIVMTQSPSSLSASVGDRVTITCRASQGISSALAWYQQKPGKAPKLLIYDASSLESGVPSRFSGSGSGTDFTLTISSLQPEDFATYYCQQFNSYPWTFGQGTKVEIK[human IgG4 Fc with S228P L235E R409K (EU numbers) omitted]

These binders were tested against extracellular domain protein of mouse MOG to which GST is added at the C-terminus (mMOG-GST) (mouse) (assay: SPR, antibody captured, mMOG-GST analyte).
extracellular domain protein of mouse MOG to which GST is added at the C-terminus (mMOG-GST) (mouse), sequence (chain, as listed by the source limits assumed): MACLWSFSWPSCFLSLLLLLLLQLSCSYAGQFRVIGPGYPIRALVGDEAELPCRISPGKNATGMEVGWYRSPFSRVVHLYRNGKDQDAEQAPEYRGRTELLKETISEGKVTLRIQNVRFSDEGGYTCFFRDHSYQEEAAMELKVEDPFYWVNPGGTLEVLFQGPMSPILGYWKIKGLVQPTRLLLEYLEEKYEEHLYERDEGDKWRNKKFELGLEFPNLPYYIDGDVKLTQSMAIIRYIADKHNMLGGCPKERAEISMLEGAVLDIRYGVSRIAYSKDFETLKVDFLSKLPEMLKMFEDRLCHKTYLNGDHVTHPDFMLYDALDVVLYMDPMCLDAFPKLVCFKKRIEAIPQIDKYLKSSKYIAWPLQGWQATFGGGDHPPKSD
B1 gave a Kd of 190 pM, a koff of 0.00021 s⁻¹ and a kon of 1.1e+06 M⁻¹ s⁻¹. B2 showed a Kd of 220 pM, a koff of 0.00023 s⁻¹ and a kon of 1.1e+06 M⁻¹ s⁻¹. In the case of B3, the Kd is reported as 3200 pM, the koff is reported as 0.00037 s⁻¹ and the kon is reported as 120000 M⁻¹ s⁻¹. Work on B4 yielded a Kd of 520 pM, a koff of 0.00039 s⁻¹ and a kon of 760000 M⁻¹ s⁻¹.
